AUC and IC50 data for 32 cell lines are collected here from the supplement of paper PMC4967469.

IC50 is the fitted dose that halves viability relative to control wells, and lower means more sensitive; a fit beyond the top or the lowest dose is shown as a bound at that dose. For AUC the same curve is integrated over the 256-fold range of doses and scaled to a fraction; the more sensitive the line, the further below 1. A top dose marked as inferred was calculated from the reported fits. Bounds are passed on as bounds.

Compound in experiment [1]: O=C1NC(=NCc2cccs2)S/C1=C\c1ccc2ncccc2c1 [RO-3306]
The experiment is described as follows: Viability of human cancer cell lines after 72 h of drug (GDSC screen). The settings on record: top dose 5 µM; top dose inferred. As to the method: (§1)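 Human cancer cell lines in 384-well plates, medium with 10% serum, drug for 72 h over a 256-fold dose range (nine 2-fold or five 4-fold steps up to the top dose). Adherent lines were fixed and stained with the nucleic acid dye Syto60, suspension lines read with resazurin; signal relative to control wells, capped at 0 and 100%. One two-parameter sigmoid per drug and line, fitted in a mixed model over all curves with the slope shared within a line.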

Compound in experiment [2]: COc1ncc(-c2ccc3nccc(-c4ccnnc4)c3c2)cc1NS(=O)(=O)c1ccc(F)cc1F [GSK2126458]
The description is as above. The settings on record: top dose inferred. The method, then:
as §1

As a reminder, the IC50 is the concentration that inhibits the measured activity by half. For 8-MG-BA (glioma, adherent), in experiment [1], the AUC was 0.851 and the IC50 came to 3.47 µM.

22RV1 (prostate, adherent): in experiment [1], the AUC was determined as 0.969 and the IC50 was > 5 µM.

Consider 42-MG-BA (glioma, adherent), for which, in experiment [1], the AUC was determined as 0.702 and the IC50 came out at 1.21 µM.

Turning to 201T (lung adenocarcinoma, adherent), in experiment [1], the AUC came to 0.962 and the IC50 was > 5 µM.

Turning to 451Lu (melanoma, adherent), in experiment [1], the AUC worked out at 0.968 and the IC50 is > 5 µM.

Turning to 639-V (bladder, adherent), in experiment [1], the AUC is 0.891 and the IC50 turned out to be 4.31 µM.

Consider 647-V (bladder, adherent), for which, in experiment [1], the AUC turned out to be 0.98 and the IC50 was > 5 µM.

On to “697 (lymphoblastic leukaemia, suspension)”, for which, in experiment [1], the AUC came to 0.96 and the IC50 is > 5 µM.

Take 786-0 (kidney, adherent): in experiment [1], the AUC came out at 0.958 and the IC50 was > 5 µM.

For 5637 (bladder, adherent), in experiment [1], the AUC was determined as 0.85 and the IC50 came to 3.27 µM.

Take 8305C (thyroid, adherent): in experiment [1], the AUC stood at 0.956 and the IC50 was > 5 µM.

Consider 8505C (thyroid, adherent), for which, in experiment [1], the AUC amounted to 0.946 and the IC50 is > 5 µM.

For the cell line 23132-87 (stomach, adherent), in experiment [1], the AUC worked out at 0.986 and the IC50 is > 5 µM.

Turning to A3-KAW (B-cell lymphoma, suspension), in experiment [1], the AUC came out at 0.992 and the IC50 was > 5 µM.

On to A4-Fuk (B-cell lymphoma, suspension), for which, in experiment [1], the AUC came out at 0.945 and the IC50 is > 5 µM.

In the case of A101D (melanoma, adherent), in experiment [1], the AUC came to 0.939 and the IC50 is > 5 µM.

Consider A172 (glioma, adherent), for which, in experiment [1], the AUC worked out at 0.847 and the IC50 is 3.48 µM.

With A253 (head and neck, adherent), in experiment [1], the AUC came to 0.974 and the IC50 is > 5 µM.

As to A375 (melanoma, adherent), in experiment [1], the AUC is 0.939 and the IC50 is > 5 µM.

Consider A388 (skin, adherent), for which, in experiment [1], the AUC amounted to 0.925 and the IC50 was > 5 µM.

As to “A427 (non-small cell lung carcinoma, adherent)”, in experiment [1], the AUC was determined as 0.986 and the IC50 is > 5 µM.

For the cell line A431 (skin, adherent), in experiment [1], the AUC amounted to 0.929 and the IC50 is > 5 µM.

On to “WSU-DLCL2 (B-cell lymphoma, suspension, top dose 0.128 µM)”, for which, in experiment [2], the AUC worked out at 0.751 and the half-inhibitory concentration (IC50) was determined as 0.0359 µM.

Consider “WSU-NHL (lymphoid neoplasm, suspension, top dose 0.128 µM)”, for which, in experiment [2], the AUC worked out at 0.796 and the IC50 was found to be 0.0517 µM.

Consider “YAPC (pancreas, adherent, top dose 0.128 µM)”, for which, in experiment [2], the AUC came out at 0.888 and the IC50 was > 0.128 µM.

For “YH-13 (glioma, adherent, top dose 0.128 µM)”, in experiment [2], the AUC was 0.777 and the IC50 came out at 0.0544 µM.

With “YKG-1 (glioma, adherent, top dose 0.128 µM)”, in experiment [2], the AUC is 0.561 and the IC50 is 0.0117 µM.

Consider “YMB-1-E (breast, adherent, top dose 0.128 µM)”, for which, in experiment [2], the AUC came to 0.607 and the IC50 was determined as 0.0175 µM.

“YT (lymphoid neoplasm, suspension, top dose 0.128 µM)”: in experiment [2], the AUC was found to be 0.171 and the IC50 was found to be 0.001 µM.

As to “huH-1 (liver, adherent, top dose 0.128 µM)”, in experiment [2], the AUC worked out at 0.983 and the IC50 is > 0.128 µM.

In the case of “no-10 (glioma, adherent, top dose 0.128 µM)”, in experiment [2], the AUC was 0.814 and the IC50 came out at 0.0907 µM.

Take “no-11 (glioma, adherent, top dose 0.128 µM)”: in experiment [2], the AUC is 0.766 and the IC50 was 0.0591 µM.
